From the supplement of paper PMC10126150
Values marked as one replicate rest on one cluster of the flow cell; about a third of the high ones do not repeat.

Each sequence was assayed on ATP (assay: switch fluorescence ratio, 500 uM ATP over buffer (Cy3 cluster intensity, sum of 5 cycles each) (fold (ratio)); higher = stronger signal-on switching upon ATP binding; sequences stand for … in TCGTCGGCAGCGTCAGATGTGTATAAGAGACAGTTTTTTTTTTTTTTTTTTTTTTTTT…TC). Conditions: aptamer strand: ATP DNA aptamer (quencher-CACCTGGGGGAGTATTGCGGAGGAAGG + anchor), 100 nM annealed; ATP concentration: 500 uM; one replicate.
How it was run: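 Exposure to 500 uM ATP lasted 15 min at 22 °C before imaging, and a selection-buffer image was taken beforehand, for Cy3-labelled switching-strand clusters on a modified Illumina MiSeq flow-cell annealed to 100 nM quencher-labelled ATP aptamer. Five buffer/ATP cycles were run with NaOH stripping and re-annealing between them. The fluorescence ratio per cluster is summed target-cycle over summed buffer-cycle Cy3 intensity, averaged per switch-domain sequence. Clusters outside 100-1000 RFU were excluded.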
AGAAGGTAAT showed a switch fluorescence ratio of 0.987. AGAAGTATGC gave a switch fluorescence ratio of 0.943. With AGAATACAAC the switch fluorescence ratio was 1.07. Sequence AGAATACAAG has a switch fluorescence ratio of 0.986. AGAATACGGC was tested, and the switch fluorescence ratio was 1.12. In the case of AGAATAGCAT, the switch fluorescence ratio is reported as 1.02. AGAATATCAC showed a switch fluorescence ratio of 1.02. Sequence AGAATCTTGT has a switch fluorescence ratio of 1.01. Work on AGAATGACCC yielded a switch fluorescence ratio of 1.06. AGAATGGACA was tested, and the switch fluorescence ratio was 1.06. AGAATGTATA showed a switch fluorescence ratio of 1. Sequence AGAATGTTTG has a switch fluorescence ratio of 0.959. AGAATTCAAT showed a switch fluorescence ratio of 1.02. AGACAAATCG gave a switch fluorescence ratio of 0.98. AGACAAGGCT gave a switch fluorescence ratio of 0.976. Sequence AGACAAGTTG has a switch fluorescence ratio of 0.856. AGACAATCTT showed a switch fluorescence ratio of 1.03. AGACACAGGC showed a switch fluorescence ratio of 0.992. Sequence AGACACCGGG has a switch fluorescence ratio of 0.925. In the case of AGACAGTGAG, the switch fluorescence ratio is reported as 0.983. AGACATGAGG was tested, and the switch fluorescence ratio was 1. Sequence AGACCCGCTA has a switch fluorescence ratio of 1.64. Sequence AGACCTAAGG has a switch fluorescence ratio of 1.04. With AGACGAAGAT the switch fluorescence ratio was 1.01. AGACGAATA showed a switch fluorescence ratio of 1.02. Sequence AGACGAGAAA has a switch fluorescence ratio of 0.976. Work on AGACGAGGA yielded a switch fluorescence ratio of 1.07. AGACGATTTT gave a switch fluorescence ratio of 0.981. For AGACGGAGTA, the switch fluorescence ratio was 0.999. AGACGTCATT gave a switch fluorescence ratio of 0.991. For AGACGTTCAG, the switch fluorescence ratio was 0.995. For AGACGTTCTT, the switch fluorescence ratio was 1.02. AGACGTTGAG showed a switch fluorescence ratio of 1.02. For AGACGTTGCA, the switch fluorescence ratio was 0.975. In the case of AGACTAGTGG, the switch fluorescence ratio is reported as 0.975. In the case of AGACTCAGG, the switch fluorescence ratio is reported as 0.967. With AGACTCGGTG the switch fluorescence ratio was 0.999. AGACTCTTGT gave a switch fluorescence ratio of 0.981. Sequence AGACTGACAC has a switch fluorescence ratio of 1.23. Work on AGACTGGGAA yielded a switch fluorescence ratio of 1.01. With AGACTGGTCC the switch fluorescence ratio was 1.05. In the case of AGACTGGTGA, the switch fluorescence ratio is reported as 1.08. With AGACTTAGAT the switch fluorescence ratio was 1.03. For AGACTTAGG, the switch fluorescence ratio was 1.02. Sequence AGACTTTACC has a switch fluorescence ratio of 1.26. With AGAGAACCGT the switch fluorescence ratio was 1.01. AGAGAAGGTA showed a switch fluorescence ratio of 0.965. AGAGAATCGA showed a switch fluorescence ratio of 1.01. AGAGACATGA showed a switch fluorescence ratio of 1. Sequence AGAGACGTGC has a switch fluorescence ratio of 1. With AGAGAGCCCG the switch fluorescence ratio was 0.966. AGAGCAAAGG showed a switch fluorescence ratio of 1.08. Work on AGAGCACAGT yielded a switch fluorescence ratio of 1. Sequence AGAGCACGTT has a switch fluorescence ratio of 1.03. AGAGCAGGA was tested, and the switch fluorescence ratio was 0.966. For AGAGCCCCAA, the switch fluorescence ratio was 0.976. Sequence AGAGCCTAAA has a switch fluorescence ratio of 0.939. For AGAGCTGATC, the switch fluorescence ratio was 1.02. Sequence AGAGGACCAC has a switch fluorescence ratio of 0.993. AGAGGCAGTA was tested, and the switch fluorescence ratio was 1.1. Work on AGAGGCCGGA yielded a switch fluorescence ratio of 0.872. AGAGGGGATC gave a switch fluorescence ratio of 1.03. In the case of AGAGGTACT, the switch fluorescence ratio is reported as 1.01. AGAGGTATTT gave a switch fluorescence ratio of 1.05. AGAGGTGCCA showed a switch fluorescence ratio of 0.972. AGAGTATATC showed a switch fluorescence ratio of 1.02. In the case of AGAGTCGTTC, the switch fluorescence ratio is reported as 0.988. With AGAGTGATAT the switch fluorescence ratio was 1.05. Work on AGAGTGCAAG yielded a switch fluorescence ratio of 1. AGAGTTGTAT was tested, and the switch fluorescence ratio was 0.976. AGATAATGTT showed a switch fluorescence ratio of 0.97. AGATACAATA showed a switch fluorescence ratio of 1.02. Work on AGATACCATT yielded a switch fluorescence ratio of 1.02. AGATACGT was tested, and the switch fluorescence ratio was 1.01. Work on AGATACTGC yielded a switch fluorescence ratio of 1.17. For AGATAGCTTA, the switch fluorescence ratio was 1. With AGATATTAAA the switch fluorescence ratio was 1. For AGATATTAAG, the switch fluorescence ratio was 0.978. In the case of AGATCAAGAT, the switch fluorescence ratio is reported as 1.02. Sequence AGATCCGAAG has a switch fluorescence ratio of 1.03. In the case of AGATCGGAAT, the switch fluorescence ratio is reported as 1.01. In the case of AGATCGGCCA, the switch fluorescence ratio is reported as 0.991. Sequence AGATCTAAAT has a switch fluorescence ratio of 1. With AGATCTAGTA the switch fluorescence ratio was 0.985. Sequence AGATCTGTAT has a switch fluorescence ratio of 0.972.
